# Measured values as given in PubChem BioAssay AID1347428 (National Center for Advancing Translational Sciences (NCATS), 2020).
# Screen size: about 91,000 compounds; about 290 (0.32%) were called active. This list was built around the results that the source calls inconclusive (neither active nor inactive); the mix of calls is not that of the screen. Calls come from the whole dose curve; as a rule, active = well fitted inhibition curve with a large enough effect; inconclusive = small, poorly fitted or top-dose-only effect; inactive = no such curve, though single readings can be large or run the other way. Potencies of inconclusive entries are doubtful fits and often do not repeat.
# Target: Single-stranded DNA cytosine deaminase (Homo sapiens) (UniProt Q9GZX7)
# UniProt Q9GZX7, sequence (Q9GZX7 whole entry, looked up): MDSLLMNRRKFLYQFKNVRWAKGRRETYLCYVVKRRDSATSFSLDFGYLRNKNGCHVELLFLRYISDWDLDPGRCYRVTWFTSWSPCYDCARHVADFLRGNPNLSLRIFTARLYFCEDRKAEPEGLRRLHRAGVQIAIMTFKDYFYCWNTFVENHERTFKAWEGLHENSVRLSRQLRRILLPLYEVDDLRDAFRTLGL
# Experiment: Primary qHTS assay for inhibitors of Activation Induced Cytidine Deaminase (AID): AID signal; note: nearly all actives have a fitted effect of over 25% in size
# Conditions: AID deamination FRET fluorescence, UDG-coupled, 4 h; activity change, negative = inhibition: at 115 µM (top of the series)
# % is set by controls: 0 for no effect and ±100 for the full control effect; potency is the fitted concentration of half-maximal effect; tags give direction and shape of the fitted curve.
SMILES,Potency,"activity change, negative = inhibition"
c1cc(CN2CCCCC2)cc(OCCCNc2nc3ccccc3s2)c1,"inconclusive: 39.8 µM [inhibitor, full curve]",
Cc1nnc(SCc2ccccc2Cl)c2cc3occc3n12,"inconclusive: 79.4 µM [inhibitor, partial curve, poor fit]",
COc1cccc(CN(C)Cc2cc(C)no2)c1OC,,inactive: 4.05%
CSc1cccc(N2C(=O)N(CC(=O)NCc3ccccc3Cl)c3ccccc3S2(=O)=O)c1,"inconclusive: 100 µM [inhibitor, single point]",
COc1cc(Cl)c(C)cc1Nc1c2c(nc3ccccc13)CCC2,"inconclusive: 28.2 µM [inhibitor, partial curve]",
COc1cc(/C=C/C(=O)C2C(=O)C=C(C)OC2=O)cc(Cl)c1OC(F)F (configuration not stated),,inactive: 16.2%
O=C(O)CCOc1ccccc1-c1ccccc1,,inactive: -5.08%
Cc1ccc(C)c(CN2C(=O)c3ccccc3Sc3ccc(C(=O)NCCCOC(C)C)cc32)c1,"inconclusive: 50.1 µM [inhibitor, partial curve, poor fit]",
COc1ccc(CNC(=O)c2cc(Nc3ccc(OC)cc3OC)nc3ccccc23)cc1,"inconclusive: 100 µM [inhibitor, single point]",
Clc1ccc(CN2CCc3nc(Nc4ccc5c(c4)OCCO5)ncc3C2)cc1,"inconclusive: 56.2 µM [inhibitor, partial curve, poor fit]",
CCOc1ccccc1CN(CCc1ccc2c(c1)OCO2)Cc1cc(OC)c(OC)cc1OC,"inconclusive: 35.5 µM [inhibitor, full curve, poor fit]",
COc1ccccc1/C=C/c1nc(C#N)c(NC(C)c2ccccc2)o1 (configuration not stated),"inconclusive: 50.1 µM [inhibitor, partial curve, poor fit]",
O=C(Nc1ccc(Oc2ccccc2)cc1)C1CCN(S(=O)(=O)c2ccccc2)CC1,"inconclusive: 89.1 µM [inhibitor, partial curve, poor fit]",
CCN(CCCNC(=O)c1cc2c(=O)[nH]c3ccc(C)cc3c2s1)Cc1ccccc1,"inconclusive: 56.2 µM [inhibitor, partial curve, poor fit]",
Cc1cc2oc(C(=O)Nc3ccc(S(=O)(=O)Nc4onc(C)c4C)cc3)cc(=O)c2cc1C,"inconclusive: 8.91 µM [inhibitor, partial curve, poor fit]",
COc1cccc(N2CCN(c3ncc4c(n3)CCN(Cc3ccc(Br)cc3)C4)CC2)c1,"inconclusive: 79.4 µM [inhibitor, partial curve, poor fit]",
Cc1cc(C)cc(NC(=O)C2CCCN2c2ncnc3ccccc23)c1 (configuration not stated),,inactive: -5.43%
CCSC1=NC2(CCN(C(=O)NC3CCCCC3)CC2)N=C1c1ccc(C)c(C)c1,"inconclusive: 35.5 µM [inhibitor, partial curve, poor fit]",
Cc1ccc(Nc2cc(-c3ccccc3)nc(C)n2)cc1,"inconclusive: 35.5 µM [inhibitor, partial curve]",
COc1cccc(/C=C/c2nc3ccccc3s2)c1OC(F)F,,inactive: -3.52%
COCCCNC(=O)CCC(=O)NNc1nc2ccccc2c2nc(-c3ccccc3)nn12,"inconclusive: 12.6 µM [inhibitor, full curve, poor fit]",

SMILES,Potency,"activity change, negative = inhibition"
O=c1cc(CSc2nnc(NC3CC3)s2)c2ccc(O)cc2o1,,inactive: -2.65%
N#C/C(=C\c1ccc2cccnc2c1)c1nc2ccccc2[nH]1,,inactive: 1.59%
COc1cc(OC)c(NC(=O)c2c(C)oc3nc(C)nc(N4CCOCC4)c23)cc1Cl,"inconclusive: 39.8 µM [inhibitor, partial curve, poor fit]",
Cc1cc(C)c(NC(=O)CCCn2c(C)c3cnn(-c4ccccc4)c(=O)c3c2C)c(C)c1,"inconclusive: 50.1 µM [inhibitor, partial curve, poor fit]",
CCc1ccccc1NC(=O)c1ccc(=O)n(Cc2ccc(F)cc2)c1,"inconclusive: 14.1 µM [inhibitor, partial curve, poor fit]",
CCOC(=O)c1c(C)oc2nc(C)nc(NCc3cccc(Cl)c3)c12,"inconclusive: 100 µM [inhibitor, partial curve, poor fit]",
COc1ccc2c(Sc3ccc(Cl)cc3)c(C(=O)N3CCC(C)CC3)[nH]c2c1,"inconclusive: 8.91 µM [inhibitor, full curve, poor fit]",
Cc1nc(-c2ccc(S(=O)(=O)N3CCN(c4cc(Cl)ccc4C)CC3)cc2)co1,"inconclusive: 39.8 µM [inhibitor, single point]",
O=C(CSc1c2c(nc3cc(Cl)ccc13)CCCC2)N1CCN(c2ccccc2F)CC1,"inconclusive: 39.8 µM [inhibitor, partial curve]",
CCOc1ccc(NC(=O)Cn2nnc(C(=O)NCCc3ccccc3)c2N)cc1,,inactive: -7.99%
Cc1ccc(OCC(=O)N(Cc2ccco2)Cc2ccco2)cc1C,"inconclusive: 50.1 µM [inhibitor, partial curve, poor fit]",
COc1ccc(C2C(C(=O)Nc3ccccc3OC)=C(C)Nc3c(C(=O)Nc4ccccc4)cnn32)c(OC)c1 (configuration not stated),"inconclusive: 35.5 µM [inhibitor, full curve, poor fit]",
CCOc1ccc(NC(=O)N(Cc2c[nH]c3ccccc23)C2CCCCCC2)cc1,"inconclusive: 7.94 µM [inhibitor, partial curve, poor fit]",
CSc1ccc(C2c3c(oc4cc(C)cc(C)c4c3=O)C(=O)N2CCO)cc1 (configuration not stated),"inconclusive: 79.4 µM [inhibitor, single point]",
CC[C@@H](C)[C@@H](C(=O)Nc1ccc(C)cc1)N1Cc2ccccc2C1=O,"inconclusive: 56.2 µM [inhibitor, partial curve, poor fit]",
CCc1ccc(OCc2nnc(SCc3cccc(C(F)(F)F)c3)n2CC(C)C)cc1,"inconclusive: 25.1 µM [inhibitor, partial curve, poor fit]",
COc1cccc(C(=O)Nc2ccc(-n3nncc3-c3ccccc3)cc2)c1,"inconclusive: 50.1 µM [inhibitor, partial curve, poor fit]",
COc1ccc(S(=O)(=O)Nc2cc(C(=O)O)ccc2C)cc1OC,,inactive: 6.34%
Cc1cc(C)cc(-n2c(C)nc3cc(C(=O)NCc4ccccc4Cl)ccc32)c1,"inconclusive: 11.2 µM [inhibitor, full curve]",
CC1Sc2ccc(C(=O)NNC(=O)CSc3cccc4cccnc34)cc2NC1=O (configuration not stated),active: 22.4 µM,
Cc1ccc(-n2nc3c(N4CCC(C(=O)NC(C)c5ccccc5)CC4)nnc(C)c3c2C)cc1 (configuration not stated),"inconclusive: 89.1 µM [inhibitor, partial curve, poor fit]",

SMILES,Potency,"activity change, negative = inhibition"
CCOC(=O)c1cnc2c(ccc3ccccc32)c1Nc1ccc(OCC)cc1,"inconclusive: 28.2 µM [inhibitor, partial curve, poor fit]",
COc1ccc(CCNC(=O)c2cc3c(s2)-c2ccccc2OC3)cc1OC,"inconclusive: 63.1 µM [inhibitor, partial curve, poor fit]",
CCCCCn1nc(C(=O)Nc2ccc(C(=O)NC(C)(C)C)cc2)c2ccccc2c1=O,,inactive: 2.75%
CC(C)CC(=O)N1CCC(NC(=O)Cc2c[nH]c3ccccc23)CC1,"inconclusive: 100 µM [inhibitor, single point]",
Cc1ccc([N+](=O)[O-])cc1S(=O)(=O)Nc1cccc(C#Cc2cccs2)c1,,inactive: -8.94%
O=C(/C=C/c1c[nH]c2ccccc12)C(F)(F)F,,inactive: 19.7%
Cc1ccc(-c2cc(C(=O)Nc3ncccc3C)c3ccccc3n2)s1,,inactive: -11.3%
COc1cccc(NC(=O)c2sc3nc4n(c(=O)c3c2C)CCC4)c1,"inconclusive: 35.5 µM [inhibitor, partial curve, poor fit]",
Cc1ccc2c(c1)c(=O)c(C(=O)c1ccc3c(c1)OCO3)cn2Cc1cccc(F)c1,"inconclusive: 15.8 µM [inhibitor, full curve, poor fit]",
COc1ccc(-c2noc(CSc3nnc(Cc4ccccc4)n3-c3ccccc3)n2)cc1OC,"inconclusive: 15.8 µM [inhibitor, full curve, poor fit]",
CCOC(=O)c1cnc2c(ccc3ccccc32)c1Nc1ccccc1OC,,inactive: 6.2% [at 57.5 µM]
CCOc1ccc(NC(=O)c2cnn(-c3ccc(C)c(Cl)c3)c2C2CCNCC2)cc1,"inconclusive: 31.6 µM [inhibitor, partial curve, poor fit]",
Cc1ccc(C(=O)Nc2ccccc2C(=O)O)cc1S(=O)(=O)N1CCCCCC1,"inconclusive: 44.7 µM [inhibitor, partial curve, poor fit]",
Cc1nnc(SCc2ccccc2Cl)c2cc3sccc3n12,"inconclusive: 89.1 µM [inhibitor, single point]",
Cc1ccc2[nH]c(=O)c(-c3noc(CCCC(=O)NC4CCCCC4)n3)cc2c1,,inactive: 11%
CN(C(=O)Cn1cc(S(=O)(=O)N2CCN(c3ccccc3F)CC2)c2ccccc2c1=O)c1ccc(Cl)cc1,"inconclusive: 22.4 µM [inhibitor, full curve, poor fit]",
Cc1ccc(Cl)cc1NC(=O)C1CCN(C(=O)c2cnn(-c3ccccc3)c2-n2cccc2)CC1,"inconclusive: 50.1 µM [inhibitor, partial curve, poor fit]",
Cc1nc(-c2ccc(S(=O)(=O)N(Cc3ccccc3)C(C)C)cc2)co1,"inconclusive: 56.2 µM [inhibitor, partial curve, poor fit]",
CN(C(=O)C1CCN(c2ncnc3c2nc2n3CCCCC2)CC1)c1ccccc1F,,inactive: -11.1%
Cc1cc(C)nc(NS(=O)(=O)c2ccc(NC(=O)c3nc(SC(C)C)ncc3Cl)cc2)n1,"inconclusive: 44.7 µM [inhibitor, partial curve, poor fit]",
